# Data from the supplement of paper PMC9135407.
# Several values for one entry are separate records, joined by “and”; a condition that tells them apart may be missing. Equal values may be shown once. Where a name gives a salt, the structure may show the parent alone. About 620 (11%) of roughly 5,800 compounds showed activity.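 How the source made its calls: active = score above a cut-off or among the top three wells of a plate; in these data no inactive exceeds 0.85.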 The entries are a selection whose mix differs from that of the whole data set.
# System: primary human hepatic stellate cells (donor 1)
# Experiment: scaled lipid accumulation score (0 = DMSO-like, 1 = nortriptyline-like); higher = stronger HSC inactivation (lipid re-accumulation), active = hit call of the paper
# Conditions: 48 h
# [1] = library stock concentration: 10 mM
# [2] = library stock concentration: 3.33 mM
# [3] = library stock concentration: 6 mM
# [4] = library stock concentration: 1 mM
# [5] = library stock concentration: 80 uM
# [6] = library stock concentration: 400 uM
# [7] = library stock concentration: 2 mM
smiles,measurement,setting,value
CNC(=C[N+](=O)[O-])NCCSCc1csc(CN(C)C)n1,scaled lipid accumulation score,[1],inactive: 0.006
CNC(=C[N+](=O)[O-])NCCSCc1csc(CN(C)C)n1 [Nizatidine],scaled lipid accumulation score,,inactive: ≤ 0
same,scaled lipid accumulation score,[2],inactive: ≤ 0
same,scaled lipid accumulation score,[3],inactive: ≤ 0
same,scaled lipid accumulation score,[1],inactive: ≤ 0
O=C(O)C1=CCNCC1 [Isoguvacine hydrochloride],scaled lipid accumulation score,[1],inactive: ≤ -0.07 and inactive: ≤ 0
OCc1ccccc1,scaled lipid accumulation score,[1],inactive: ≤ 0
O=C(O)CCCCCC[C@H]1C(=O)C[C@@H](O)[C@@H]1/C=C/[C@@H](O)Cc1ccccc1 [16-phenyl tetranor Prostaglandin E1],scaled lipid accumulation score,[4],inactive: 0.017
CC(C)CN(C[C@@H](O)[C@H](Cc1ccccc1)NC(=O)O[C@H]1CCOC1)S(=O)(=O)c1ccc(N)cc1 [Amprenavir],scaled lipid accumulation score,[2],inactive: ≤ 0
same,scaled lipid accumulation score,library stock concentration: 4 mM,inactive: ≤ 0
same,scaled lipid accumulation score,[1],inactive: ≤ 0
CN(C)S(=O)(=O)c1ccc2c(c1)/C(=C/c1cc3c([nH]1)CCCC3)C(=O)N2,scaled lipid accumulation score,[4],active: 0.413
CCn1c(=O)[nH]c2ccccc21,scaled lipid accumulation score,[1],inactive: ≤ -0.006
CCN(CC)CCCCNc1ncc2cc(-c3c(Cl)cccc3Cl)c(NC(=O)NC(C)(C)C)nc2n1,scaled lipid accumulation score,[1],active: 0.999
CCNC(=O)c1noc(-c2cc(Cl)c(O)cc2O)c1-c1ccc(OC)cc1,scaled lipid accumulation score,[2],inactive: 0.783
same,scaled lipid accumulation score,[1],inactive: 0.741
CCCCCCCCCCC(C)(C)C(=O)Nc1c(OC)cc(OC)cc1OC,scaled lipid accumulation score,[1],inactive: 0.164 and inactive: ≤ -0.001
"CN=C(N)NCCC[C@H](N)C(=O)O [L-Ornithine, N5-[imino(methylamino)methyl]-[CAS]]",scaled lipid accumulation score,[1],inactive: ≤ 0
CCOC(=O)c1ccc(N2NC(=O)C(=Cc3ccc([N+](=O)[O-])o3)C2=O)cc1,scaled lipid accumulation score,[5],inactive: ≤ -0.001
same,scaled lipid accumulation score,[6],inactive: ≤ -0.001
same,scaled lipid accumulation score,[7],inactive: ≤ -0.001
same,scaled lipid accumulation score,[2],inactive: ≤ -0.009
same,scaled lipid accumulation score,[1],inactive: 0.131 and inactive: ≤ -0.001
CC[C@]12CCCN3CCc4c(n(c5ccccc45)C(=O)C1)[C@@H]32 [Eburnamonine (-)],scaled lipid accumulation score,,inactive: ≤ 0
CCCCC(=O)Oc1ccccc1C(=O)O [Valeroyl Salicylate],scaled lipid accumulation score,[4],inactive: ≤ 0
C[C@@H](Oc1cc(-c2cnn(C3CCNCC3)c2)cnc1N)c1c(Cl)ccc(F)c1Cl,scaled lipid accumulation score,[2],active: 0.909
same,scaled lipid accumulation score,[1],active: 0.863
CCCCCCCCCCCCCCCCCCCCCC(=O)NCCS(=O)(=O)O [N-Docosanoyl Taurine],scaled lipid accumulation score,[4],inactive: ≤ 0
CCn1cc(C(=O)O)c(=O)c2cc(F)c(N3CCN(C)CC3)cc21,scaled lipid accumulation score,[1],inactive: ≤ 0
CCn1cc(C(=O)O)c(=O)c2cc(F)c(N3CCN(C)CC3)cc21 [Pefloxacine mesylate],scaled lipid accumulation score,library stock concentration: 4.7 mM,inactive: ≤ 0
same,scaled lipid accumulation score,[3],inactive: 0.013
same,scaled lipid accumulation score,[1],inactive: ≤ -0.027
CCn1cc(C(=O)O)c(=O)c2cc(F)c(N3CCN(C)CC3)cc21 [Pefloxacin Mesylate Dihydrate],scaled lipid accumulation score,[2],inactive: ≤ 0
same,scaled lipid accumulation score,[1],inactive: ≤ 0
CCn1cc(C(=O)O)c(=O)c2cc(F)c(N3CCN(C)CC3)cc21 [Pefloxacin Mesylate],scaled lipid accumulation score,[2],inactive: ≤ 0
same,scaled lipid accumulation score,[1],inactive: 0.034
CC(N)(C(=O)O)c1ccc(C(=O)O)cc1 (configuration not stated),scaled lipid accumulation score,[1],inactive: 0.151
Cc1ccc(S(=O)(=O)NCl)cc1,scaled lipid accumulation score,[1],inactive: ≤ 0
CCCCCCCC(=O)CC[C@@H]1[C@@H](C/C=C\CCCC(=O)OC(C)C)[C@@H](O)C[C@H]1O [Unoprostone isopropyl ester],scaled lipid accumulation score,[4],inactive: ≤ 0
CCOC(=O)c1c(C)[nH]c2ccc3c(c12)CN1CCc2cc(OC)ccc2C1O3 (configuration not stated),scaled lipid accumulation score,[1],inactive: 0.648
O[C@H]1[C@H](O)[C@@H](O)[C@@H]2O[C@@H]2[C@@H]1O (racemic) [Conduritol b epoxide],scaled lipid accumulation score,library stock concentration: 12.3 mM,inactive: ≤ 0
C[C@@H]1O[C@@H]1P(=O)(O)O [Fosfomycin],scaled lipid accumulation score,[1],inactive: ≤ 0
C[C@@H]1O[C@@H]1P(=O)(O)O [Phosphomycin disodium],scaled lipid accumulation score,[1],inactive: ≤ -0.055
Cn1c(=O)c2[nH]c(-c3ccc(S(=O)(=O)O)cc3)nc2n(C)c1=O [8-(p-Sulfophenyl)theophylline],scaled lipid accumulation score,[1],inactive: ≤ 0
C[C@@H]1CN(c2c(F)c(N)c3c(=O)c(C(=O)O)cn(C4CC4)c3c2F)C[C@H](C)N1 [Sparfloxacin],scaled lipid accumulation score,[2],inactive: 0.027
same,scaled lipid accumulation score,library stock concentration: 5.1 mM,inactive: ≤ 0
same,scaled lipid accumulation score,[1],inactive: ≤ 0
CN1CCN(C(c2ccccc2)c2ccc(Cl)cc2)CC1 (configuration not stated) [Chlorcyclizine hydrochloride],scaled lipid accumulation score,,inactive: 0.377
same,scaled lipid accumulation score,library stock concentration: 5.9 mM,inactive: 0.391
O=C(N/N=C/c1ccc([N+](=O)[O-])o1)c1ccc(O)cc1 [Nifuroxazide],scaled lipid accumulation score,,inactive: ≤ 0
same,scaled lipid accumulation score,[2],inactive: 0.007
same,scaled lipid accumulation score,[1],inactive: 0.454
Cc1cccc(Nc2cc(Cl)nc(SCC(=O)O)n2)c1C,scaled lipid accumulation score,[4],inactive: 0.006 and inactive: ≤ -0.021
same,scaled lipid accumulation score,[2],inactive: ≤ -0.009
same,scaled lipid accumulation score,[1],inactive: ≤ 0 and inactive: ≤ -0.006
CCOc1cc2ncc(C#N)c(Nc3ccc(OCc4ccccn4)c(Cl)c3)c2cc1NC(=O)/C=C/CN(C)C,scaled lipid accumulation score,[5],inactive: ≤ 0
same,scaled lipid accumulation score,[6],inactive: ≤ 0
same,scaled lipid accumulation score,[7],inactive: 0.107
same,scaled lipid accumulation score,[1],inactive: 0.02
"O=C1C=CC(=O)c2c1ccc1c2ccc2ccccc21 [Chrysene-1,4-quinone]",scaled lipid accumulation score,,inactive: 0.829
CN(Cc1ccccc1)C(=O)[C@H](Cc1ccc2ccccc2c1)NC(=O)[C@@H]1C[C@@H](O)CN1C(=O)c1cn(C)c2ccccc12,scaled lipid accumulation score,[1],inactive: 0.019
Cc1cn([C@@H]2C[C@@H](O)[C@H](CO)O2)c(=O)[nH]c1=O [Telbivudine],scaled lipid accumulation score,[2],inactive: ≤ 0
same,scaled lipid accumulation score,[1],inactive: ≤ 0
NC(=O)c1ncn([C@@H]2O[C@H](CO)[C@@H](O)[C@H]2O)c1O [Mizoribine],scaled lipid accumulation score,[1],inactive: ≤ -0.055
CC(=O)Nc1ccc(S(=O)(=O)Nc2ccc([N+](=O)[O-])cc2)cc1 [Sulfanitran],scaled lipid accumulation score,[3],inactive: ≤ 0
same,scaled lipid accumulation score,[1],inactive: 0.168
CCC(=O)[C@@]1(C)[C@H](C)C[C@H]2[C@@H]3CCC4=CC(=O)C=C[C@]4(C)[C@H]3[C@@H](O)C[C@@]21C [Rimexolone],scaled lipid accumulation score,,inactive: ≤ 0
